Laboratory results published in PubChem BioAssay AID1347165 (National Center for Advancing Translational Sciences (NCATS), 2019).
Several values for one entry are separate records, joined by “and”; a condition that tells them apart may be missing. Equal entries are not always repeated. Among all 220,000 compounds or so, about 5,700 (2.6%) were called active. The shares of active, inactive and inconclusive entries below differ from those in the screen. Calls come from the whole dose curve; as a rule, active = well fitted inhibition curve with a large enough effect; inconclusive = small, poorly fitted or top-dose-only effect; inactive = no such curve, though single readings can be large or run the other way. A potency beside an inconclusive call is a rough fit, not a confirmed value.

These compounds were tested against Lysine-specific demethylase 5B (Homo sapiens) (UniProt Q9UGL1) (assay: Primary screen for KDM5B Histone Demethylases FDH-coupled qHTS). Conditions: FDH-coupled NADH fluorescence (FDH is formaldehyde dehydrogenase); activity change, negative = inhibition: at 57.7 µM (top of the series) unless noted.
Method in brief: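 Coupled FDH/NAD⁺ fluorescence readout. KDM5BΔAP 200 nM final; compound titration, 10 min RT preincubation; substrate mix 12.5 µM H3K4me3, 25 µM 2-OG, 50 µM Fe(II), 100 µM ascorbate, 0.25 mM NAD⁺, 0.25 U/mL FDH; ΔRFU over 30 min.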
Note: nearly all actives have a fitted effect of over 70% in size.
Potency is the fitted concentration of half-maximal effect; tags give direction and shape of the fitted curve.
Throughout, for activity change, negative = inhibition: 0% is about no effect.

Chain of UniProt Q9UGL1 (Q9UGL1 whole entry, looked up): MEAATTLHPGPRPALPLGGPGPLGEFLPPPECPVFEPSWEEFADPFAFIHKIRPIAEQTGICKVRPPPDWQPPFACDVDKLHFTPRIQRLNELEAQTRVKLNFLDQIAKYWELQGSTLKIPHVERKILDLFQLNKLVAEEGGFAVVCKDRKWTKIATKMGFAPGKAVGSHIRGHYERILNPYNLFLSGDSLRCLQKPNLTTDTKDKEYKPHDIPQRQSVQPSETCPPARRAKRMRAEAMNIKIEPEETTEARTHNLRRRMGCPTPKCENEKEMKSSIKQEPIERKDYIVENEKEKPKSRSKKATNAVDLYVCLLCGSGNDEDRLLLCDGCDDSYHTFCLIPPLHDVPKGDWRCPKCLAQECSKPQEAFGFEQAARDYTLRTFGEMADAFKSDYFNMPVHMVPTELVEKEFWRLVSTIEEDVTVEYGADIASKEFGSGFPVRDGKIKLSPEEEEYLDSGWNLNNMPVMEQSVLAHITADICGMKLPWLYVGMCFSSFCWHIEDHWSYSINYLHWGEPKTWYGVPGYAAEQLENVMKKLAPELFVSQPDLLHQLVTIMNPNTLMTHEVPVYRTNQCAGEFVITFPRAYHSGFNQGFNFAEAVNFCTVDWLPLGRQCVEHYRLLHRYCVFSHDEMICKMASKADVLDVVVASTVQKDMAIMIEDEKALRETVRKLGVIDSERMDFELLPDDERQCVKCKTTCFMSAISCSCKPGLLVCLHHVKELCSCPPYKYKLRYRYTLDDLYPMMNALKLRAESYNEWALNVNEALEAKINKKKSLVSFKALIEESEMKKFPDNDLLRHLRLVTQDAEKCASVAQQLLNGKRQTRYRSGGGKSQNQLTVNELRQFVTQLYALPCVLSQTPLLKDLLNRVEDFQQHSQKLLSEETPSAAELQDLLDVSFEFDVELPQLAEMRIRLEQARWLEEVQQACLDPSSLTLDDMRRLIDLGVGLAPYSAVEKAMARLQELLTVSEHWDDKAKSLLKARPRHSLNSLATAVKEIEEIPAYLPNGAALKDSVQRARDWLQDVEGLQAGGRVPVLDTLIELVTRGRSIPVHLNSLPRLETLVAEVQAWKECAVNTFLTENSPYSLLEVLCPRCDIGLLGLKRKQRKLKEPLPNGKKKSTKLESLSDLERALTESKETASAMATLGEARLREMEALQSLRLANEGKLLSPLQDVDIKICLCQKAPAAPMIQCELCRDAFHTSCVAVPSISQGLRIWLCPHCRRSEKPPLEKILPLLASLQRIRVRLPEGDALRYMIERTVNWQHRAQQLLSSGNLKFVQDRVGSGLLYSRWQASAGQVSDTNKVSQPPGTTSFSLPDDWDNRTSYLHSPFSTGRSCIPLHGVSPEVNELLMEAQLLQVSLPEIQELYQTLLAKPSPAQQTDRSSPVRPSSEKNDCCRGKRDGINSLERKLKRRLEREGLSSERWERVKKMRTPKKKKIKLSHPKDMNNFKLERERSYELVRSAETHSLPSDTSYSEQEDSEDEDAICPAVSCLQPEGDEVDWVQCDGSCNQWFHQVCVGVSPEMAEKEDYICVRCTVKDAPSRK

SMILES	Potency	activity change, negative = inhibition
Cc1cc(C)c2[nH]c(C)c(CN3CCCCCC3)c(=O)c2c1	inconclusive: 22.4 µM [inhibitor, partial curve, poor fit]	
N#Cc1ccccc1CN1CCNc2nc(CNCc3cnccn3)n(Cc3ccccc3)c2C1=O	inconclusive: 39.8 µM [inhibitor, single point]	
O=C(N[C@@H](Cn1cc(Cl)c(=O)[nH]c1=O)C(=O)O)c1cccc(F)c1	inactive	
O=C(Oc1ccc(F)cc1)c1nc(SCc2ccccc2F)ncc1Cl	inconclusive: 35.5 µM [inhibitor, single point]	
COc1ccc(CN2C=C(C(=O)OCc3nc(-c4cccc(F)c4)no3)C(C)=NS2(=O)=O)cc1	inconclusive: 11.2 µM [inhibitor, partial curve]	
CN(c1cc(=O)c2ccnc(-c3ccc([S+](C)(=O)[O-])cc3)c2o1)C1CCOCC1	active: 35.5 µM	
CCn1c(CNC(=O)C23CC4CC(CC(C4)C2)C3)nnc1SCC(=O)Nc1ccccc1	inconclusive: 50.1 µM [inhibitor, single point]	
CC(CN1CCOCC1)NS(=O)(=O)c1cc(F)cc(F)c1 (configuration not stated)	inactive	
COc1ccc(-c2nc(CNS(=O)(=O)c3ccccc3)cs2)cc1	inconclusive: 22.4 µM [inhibitor, partial curve, poor fit]	
COc1cccc(CNC(=O)c2cc3c(s2)-c2c(C)cccc2OC3)c1	inconclusive: 31.6 µM [inhibitor, partial curve, poor fit] and inconclusive: 25.1 µM [inhibitor, partial curve, poor fit]	
Cn1c(SCC(=O)Nc2cc(Cl)cc(Cl)c2)nnc1-c1ccc2nonc2c1	inconclusive: 31.6 µM [inhibitor, partial curve, poor fit]	
Cc1c(-c2ccccc2)c(=O)oc2cc(OCC(=O)OC(C)(C)C)ccc12	inconclusive: 31.6 µM [inhibitor, partial curve, poor fit]	
COc1ccc(-n2nc3c(N4CCCC(C(=O)NCc5cccc(F)c5)C4)nnc(C)c3c2C)cc1 (configuration not stated)	inconclusive: 22.4 µM [inhibitor, partial curve, poor fit]	
COc1ccc(NC(=O)N2C[C@@H]3C[C@H](C2)c2c(NC(=O)Nc4ccccc4)ccc(=O)n2C3)cc1	inconclusive: 20 µM [inhibitor, partial curve, poor fit]	
C=CCO[C@@H]1CCN2C(=O)c3cc(-c4ccc(OC)cc4)ccc3NC(=O)[C@H]12	active: 35.5 µM	
CC1(C)CN(C(=O)c2cn(CCN3CCNCC3)nn2)C[C@]1(C)O	inconclusive: 15.8 µM [inhibitor, partial curve]	
COc1ccccc1CNC(=O)c1ccc2c(c1)N(Cc1cccc(Cl)c1)C(=O)c1ccccc1S2(=O)=O	inconclusive: 17.8 µM [inhibitor, partial curve, poor fit]	
COc1ccc(C(=O)N[C@@H]2CN(C)C[C@H]2CN(C)C)cc1OC	inconclusive: 25.1 µM [inhibitor, partial curve, poor fit]	
O=C(COc1ccc(Cl)cc1)Nc1c(NC2CCCC2)c2ccccc2oc1=O	inactive	
COc1ccccc1C(=O)NCc1c[nH]c2ncccc12	inactive	
Cc1ccc(NC(=O)Cn2c(=O)n(CCC(=O)N3CCc4ccccc4C3)c(=O)c3ccccc32)cc1	inactive	
CC(=O)c1ccc(OCc2cccc3ccccc23)cc1	inactive	
Cc1nnnn1-c1cccc(C(=O)N2CCC3(CCCN(C)C3=O)C2)c1 (configuration not stated)	inactive	

SMILES	Potency	activity change, negative = inhibition
CC1CCN(CC2CCCCCN2)CC1 (configuration not stated)	inactive	
COc1cccc(NC(=O)COc2ccc3c(C)cc(=O)oc3c2)c1	inconclusive: 20 µM [inhibitor, partial curve, poor fit]	
O=C(CN1C(=O)NC2(CCCCC2)C1=O)Nc1ccc2c(c1)OCCO2	inactive	
COc1ccc(/C=C\c2onc(C)c2S(=O)(=O)N2CCC(C(=O)Nc3ccc(Cl)cc3)CC2)cc1		inconclusive: -34.4% [inhibitor]
CC(C)(C)NC(=O)N1CC(c2noc(C3CCCN3CC3CC3)n2)C1 (configuration not stated)	inactive	
CN(C)c1ccc(N=Cc2c(O)ccc3ccccc23)cc1	inconclusive: 5.01 µM [inhibitor, full curve, poor fit]	
Cn1cccc1CN1CCC2(CC1)CC(=O)c1ccccc1O2	active: 25.1 µM	
COc1ccccc1N1CCN(S(=O)(=O)c2ccc3[nH]c4c(c3c2)CCCC4)CC1	inconclusive: 35.5 µM [inhibitor, single point]	
O=C(c1ccccc1Cl)N1CCC2(CC1)CCN(CCc1ccccc1)c1ccccc1O2	inconclusive: 10 µM [inhibitor, partial curve, poor fit]	
COC[C@@H]1CN(C(=O)c2ccc(F)cc2Cl)C[C@H]1C(N)=O	inactive	
COc1ccc(-c2ccnc3[nH]n(-c4ccccc4)c(=O)c23)cc1	inactive	
COc1ccc(-c2nn(-c3ccccc3)cc2CN2CCN3CCCC3C2)c(F)c1 (configuration not stated)	inactive	
Cc1ccc(NC(=O)c2ccc3snnc3c2)cc1Cl	inconclusive: 44.7 µM [inhibitor, single point]	
COc1ccc(-c2nc(CSCC(=O)NCc3cccnc3)c(C)o2)cc1	inactive	
C=CCOc1cccc(-c2nc(C(=O)Nc3ccccc3)cs2)c1	inconclusive: 28.2 µM [inhibitor, single point]	
COc1ccc(OCc2ccc(-c3nc(C#N)c(N4CCC(C)CC4)o3)o2)cc1	inconclusive: 31.6 µM [inhibitor, partial curve, poor fit]	
COc1ccc(C(=O)c2c(C)oc3cc(C#N)c(C#N)cc23)cc1	inactive	
Cc1cccc(OCC(=O)NCC2(N3CCN(C)CC3)CCCCC2)c1C	inconclusive: 0.794 µM [inhibitor, full curve, poor fit]	
CC(C)Oc1cccc(-c2nnc(CCC(=O)NC3CCCCC3)c(=O)[nH]2)c1	inconclusive: 31.6 µM [inhibitor, partial curve, poor fit]	
CCCNC1(Cc2cc(C(=O)N3CCCCC3)on2)COC1	inconclusive: 35.5 µM [inhibitor, partial curve, poor fit]	
Nc1nccnc1C(=O)NCc1ccccc1OC(F)F	inconclusive: 28.2 µM [inhibitor, partial curve, poor fit]	
Cc1ccc(-n2ncc3c(N(C)Cc4ccccc4)ncnc32)cc1	inconclusive: 39.8 µM [inhibitor, partial curve, poor fit]	
O=C1[C@@H]2C[C@@H](CN2Cc2ccccn2)Oc2ccccc2N1CC1CC1	inconclusive: 25.1 µM [inhibitor, partial curve, poor fit]	

SMILES	Potency	activity change, negative = inhibition
O=C1Nc2ccccc2C12CCN(Cc1ccccc1)C2 (configuration not stated)	inactive	
CCOc1ccc(CCNC(=O)c2cn(C)c3ccc(S(=O)(=O)N4CCOCC4)cc3c2=O)cc1OCC	inactive	
CC(Cc1ccncc1)Nc1nccc(-c2cnn(-c3ccccc3F)c2)n1 (configuration not stated)	active: 28.2 µM	
Cc1cc(C(=O)Nc2ccc(C(=O)N(C)C)cc2)c2ccccc2n1	inactive	
N#Cc1ccnc(N2CCN(C(=O)Nc3ccccc3F)CC2)c1	inconclusive: 15.8 µM [inhibitor, partial curve, poor fit]	
CCc1noc(-c2cccn3c(CNC(=O)c4ccc(F)cc4)nnc23)n1	active: 25.1 µM	
O=C(c1cccc2[nH]ccc12)N1CC[C@@H]2COCCN(Cc3ccncc3)[C@@H]2C1	active: 28.2 µM	
COc1ccc(-c2nc(-c3ccc(C)cc3C)cs2)cc1OC	inconclusive: 39.8 µM [inhibitor, single point]	
CCNC(=O)N1CCC(NC(=O)c2cccc(CCC(C)(C)O)c2)CC1	inconclusive: 17.8 µM [inhibitor, single point]	
CCSc1ncc(CN(CCOC)Cc2ccccc2F)cn1	inconclusive: 25.1 µM [inhibitor, partial curve, poor fit]	
Cc1nccn1CCCC(=O)N1CC[C@](C)(O)[C@H](C)C1	inconclusive: 4.47 µM [inhibitor, single point]	
Cc1ccc(CNc2nc(NCc3ccc(C)cc3)n(C(=O)c3ccncc3)n2)cc1	inconclusive: 20 µM [inhibitor, partial curve, poor fit]	
O=C(CCC[C@H]1NC[C@@H]2CC1CN(Cc1ccccc1)C2)N1CCOCC1	inconclusive: 11.2 µM [inhibitor, partial curve]	
Cc1nn(C(=O)c2ccccc2)c(C)c1Sc1ccc(Cl)cc1	inactive	
O=C(C1CCCCC1)N1CCCC2(COc3ccccc3[S+](=O)([O-])N2)C1 (configuration not stated)	inactive	
N#Cc1c(SCC(=O)c2ccccc2)nsc1SCC(=O)c1ccccc1	inconclusive: 31.6 µM [inhibitor, partial curve, poor fit]	
O=C1CC(c2ccccc2)N(C(=O)CNC(=O)c2ccc3[nH]ccc3c2)CCCCCN1 (configuration not stated)	inconclusive: 39.8 µM [inhibitor, partial curve, poor fit]	
C[C@@H]1CN(C(=O)CN2CCN(c3ncccn3)CC2)C[C@@]1(O)C1CCC1	inconclusive: 25.1 µM [inhibitor, partial curve, poor fit]	
CCC1(CC)CC1C(=O)N1CCc2onc(-c3cccc(F)c3)c2C1 (configuration not stated)	inactive	
CCOC(=O)c1c(S(=O)(=O)N2CCCC(C(=O)N(C)Cc3ccccc3)C2)c(C)n(C)c1C (configuration not stated)	inconclusive: 17.8 µM [inhibitor, single point]	
COc1cc(NC(=O)Cn2ccn(Cc3ccccc3OC)c(=O)c2=O)cc(OC)c1	inconclusive: 44.7 µM [inhibitor, single point]	
